# Experimental data from PubChem BioAssay (NCI).
# Where “and” joins values, the source holds several entries; their conditions need not be identical. Equal values may be shown once.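 1) Cells in 96-well plates. 2) Compound, 48 h, 5 concentrations. 3) Linear interpolation between surrounding doses. 4) Unreached endpoint = highest concentration. GI50 = concentration required for 50% inhibition of growth. The concentration for full growth arrest is given as TGI.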 Peptide text beside a SMILES is read from it.
# System: NCI-H322M lung
# Assay: NCI-60 cell line screen, 48 h
Structure (SMILES),TGI [µM],GI50
O=C(O)CCc1nc(-c2ccccc2-n2cccc2)no1,> 100,–
Cn1cc(NC(=O)Nc2cc(C(=O)Nc3cc(C(=O)Nc4cc(S(=O)(=O)O)c5cc(S(=O)(=O)O)cc(S(=O)(=O)O)c5c4)n(C)c3)n(C)c2)cc1C(=O)Nc1cc(C(=O)Nc2cc(S(=O)(=O)O)c3cc(S(=O)(=O)O)cc(S(=O)(=O)O)c3c2)n(C)c1,> 100,–
CCOC(=O)C(C(=O)COC(C)(C)C)[C@@H]1C=C[C@H](OC(C)=O)C1 (stereo partly drawn),> 100,–
O=C1c2cc([N+](=O)[O-])sc2C(=O)c2c([N+](=O)[O-])csc21,3.2,–
Cn1cc(-c2nc(N[C@@H]3CCCC[C@@H]3N)c(F)c3c2C(=O)NC3)cn1,> 100,19.6 µM and 27.8 µM
Cc1ccc(/C=N/NS(=O)(=O)c2ccccc2)c(C)c1,> 100,–
CN1CCN([C@H]2C[C@H]3[C@@H]4CC=C5C[C@@H](O)CC[C@]5(C)[C@H]4CC[C@]3(C)[C@H]2O)CC1,> 83.3,–
Cc1c(O)c(=O)ccn1CCc1ccc(O)cc1,> 100,–
Cn1cc(C2=C(c3cn(CCCCC(=N)N)c4ccccc34)C(=O)NC2=O)c2ccccc21,> 25,> 25 µM
CC[C@H](C)[C@H](NC(=O)[C@@H](N)CCC(N)=O)C(=O)N[C@@H](Cc1ccc(O)cc1)C(=O)N[C@@H](CCCCN)C(=O)N[C@@H](CCCCN)C(=O)N[C@@H](Cc1ccc(O)cc1)C(=O)N[C@@H](CCCNC(=N)N)C(=O)N[C@H](C(=O)N[C@@H](Cc1c[nH]c2ccccc12)C(=O)N[C@@H](Cc1ccc(O)cc1)C(=O)N[C@@H](CCCNC(=N)N)C(=O)N[C@@H](CCCCN)C(=O)N[C@@H](C)C(=O)N[C@@H](Cc1c[nH]c2ccccc12)C(=O)N[C@@H](CCCCN)C(=O)N[C@H](C(=O)N[C@@H](CC(C)C)C(=O)NCC(=O)N[C@@H](CCCCN)C(=O)N[C@H](C(N)=O)C(C)C)C(C)C)[C@@H](C)O (H-QIYKKYRTWYRKAWKVLGKV-NH2),17.5,4.57 µM
O=S(=O)(O)c1cc(S(=O)(=O)O)c2c(N=Nc3ccc(N=Nc4ccccc4)cc3)c(O)ccc2c1,> 100,–
O=[N+]([O-])/C(C(Cl)=C(Cl)Cl)=C(/Nc1ccccc1)Sc1ccccc1,92,–
N#C/C(=C\c1ccc2[nH]ccc2c1)C(=O)c1ccc(O)c(O)c1,> 100,–
Nc1nc(N)c2c(n1)NC(c1sc(Cl)nc1Cl)CC(c1ccc3c(c1)OCO3)=N2 (stereo not drawn),> 100,14.9 µM
O=C(CCC1CCCCN1)Nc1ccc2c(c1)C(=O)c1ccc(NC(=O)CCN3CCCCC3)cc1C2=O (stereo not drawn),35.9,–
Cc1cc2nc3c4ccc(Br)cc4n(CCN(C)C)c3nc2cc1C,6.37,1.6 µM

Structure (SMILES),TGI [µM],GI50
CN(C)CCNC(=O)c1c(O)ccc2c1c1c(n2CCc2ccccc2)C(=O)c2ccccc2C1=O,17.4,–
CC(C)[Si](OCC1CC(C#N)OC(C)(C)O1)(C(C)C)C(C)C (stereo not drawn),59.5,–
O=C(/C=C/c1cccc2ccccc12)Nc1ncc(Cc2ccccc2)s1,> 27.1,1.35 µM
CC1C2(C)OCC(C#N)(C(=N)O2)C1(C#N)C#N (stereo not drawn),> 100,–
O=C1N(c2ccccc2)C(=S)/C(=C/c2ccc(Cl)cc2)N1c1ccc(Cl)cc1,> 100,–
CC(=O)c1c2c(cc3c1CC1(C3)Cc3cc4c(c(C(=O)O)c3C1)CCC4)CCC2 (stereo not drawn),> 100,–
CC1=C(N2CC2)C(=O)c2ccccc2C1=O,4.92,–
O=C1CC(c2ccccc2)S(=O)c2ccccc2N1 (stereo not drawn),> 100,–
NC(=O)c1ccc(N(C(N)=O)c2c(F)cccc2F)nc1-c1ccc(F)cc1F,> 100,> 100 µM
CC1OC(=O)C(C(C)C)NC(=O)C(C(C)C)OC(=O)C(C(C)C)NC(=O)C(C)OC(=O)C(C(C)C)NC(=O)C(C(C)C)OC(=O)C(C(C)C)NC(=O)C(C)OC(=O)C(C(C)C)NC(=O)C(C(C)C)OC(=O)C(C(C)C)NC1=O (stereo not drawn),0.717,–
CCOC(=O)C1=C(C)N(Cc2ccccc2)C2(O)C=CC(=O)C3=C(O)c4ccccc4C(=O)C312 (stereo not drawn),43.6,–
FC(F)(F)c1ccc2nc(Sc3ccc4ccccc4c3)cnc2c1,> 100,–
CNC(c1ccncc1)C(NC)c1ccncc1 (stereo not drawn),> 100,–
Cc1ccc2c(c1C)C(=O)/C(=C/c1cccc(C)c1C(=O)O)C2,> 100,–
Cc1ccc(S[C@@H](C)[C@@](O)(C(N)=O)c2ccccc2)cc1,> 100,–
